The whole screen tested about 360,000 compounds, of which about 25,000 (6.9%) were called active. This list was built around the results that the source calls inconclusive (neither active nor inactive); the mix of calls is not that of the screen. Calls come from the whole dose curve; as a rule, active = well fitted inhibition curve with a large enough effect; inconclusive = small, poorly fitted or top-dose-only effect; inactive = flat fitted curve, though single readings scatter. Where the call is inconclusive, the potency comes from a doubtful curve fit.
target: Luciferin 4-monooxygenase (Photinus pyralis) (UniProt P08659); assay: qHTS profiling assay for firefly luciferase inhibitor/activator using purifed enzyme and Km concentrations of substrates (counterscreen for miR-21 project); settings: purified FLuc, luminescence inhibition; series mostly up to 57.5 µM; activity change, negative = inhibition: at the top concentration; note: nearly all actives have a fitted effect of over 55% in size;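 for activity change, negative = inhibition: plate controls were vehicle for no effect and reference inhibitor for full effect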
UniProt P08659, sequence (P08659 whole entry, looked up): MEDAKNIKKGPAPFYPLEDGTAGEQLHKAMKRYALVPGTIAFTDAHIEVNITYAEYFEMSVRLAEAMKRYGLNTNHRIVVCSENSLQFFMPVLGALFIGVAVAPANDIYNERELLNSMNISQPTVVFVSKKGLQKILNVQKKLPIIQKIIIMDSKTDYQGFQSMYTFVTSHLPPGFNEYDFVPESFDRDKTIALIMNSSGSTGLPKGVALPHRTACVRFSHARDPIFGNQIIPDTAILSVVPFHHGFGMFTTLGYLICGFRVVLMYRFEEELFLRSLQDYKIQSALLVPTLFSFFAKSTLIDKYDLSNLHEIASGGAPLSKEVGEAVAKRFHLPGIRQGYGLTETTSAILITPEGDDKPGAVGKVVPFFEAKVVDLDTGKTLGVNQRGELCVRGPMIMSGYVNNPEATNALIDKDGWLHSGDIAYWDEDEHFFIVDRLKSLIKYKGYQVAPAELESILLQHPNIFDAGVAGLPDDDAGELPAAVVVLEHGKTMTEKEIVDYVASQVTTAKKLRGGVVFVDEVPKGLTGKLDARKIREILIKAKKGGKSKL
Outline: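 Purified P. pyralis luciferase (10nM final) with 10uM D-luciferin and 10uM ATP (Km levels) in 50mM Tris acetate pH 7.5, 10mM Mg acetate, 0.01% Tween-20, 0.05% BSA; qHTS 6-point titration, ~60 µM downward; luminescence read.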
Potency is the fitted concentration of half-maximal effect; tags give direction and shape of the fitted curve.

**Q.** For `CCCc1nnc(NC(=O)CCC(=O)NC2CC2)s1`, which “activity change, negative = inhibition” value is on record?
**A.** inactive: 0.134%

**Q.** With `COc1cc(NC2CCCCC2O)c2nc(-c3ccc(Cl)cc3)ccc2c1` (centres undefined) as the compound, how does the Potency read?
**A.** inconclusive: 19 µM [inhibitor, single point]

**Q.** Which Potency does the source give for `CC(c1ccon1)N(C)Cc1cn[nH]c1-c1ccc(-c2ccccc2)cc1` (centres undefined) here?
**A.** inconclusive: 23.9 µM [inhibitor, single point]

**Q.** For `O=C(Nc1ccc(N2CCN(C(=O)c3ccco3)CC2)c(Cl)c1)c1cc2ccccc2o1`, which Potency is on record?
**A.** inconclusive: 23.9 µM [inhibitor, partial curve, poor fit]

**Q.** How did the Potency turn out when `Cc1ccc(Cn2c(-c3ccccc3)nc3ccccc32)cc1` was run?
**A.** inconclusive: 37.9 µM [inhibitor, partial curve, poor fit]

**Q.** How did the Potency turn out when `Cc1ccccc1CSc1nnc(C)c(=O)[nH]1` was run?
**A.** inconclusive: 30.1 µM [inhibitor, partial curve, poor fit]

**Q.** With `COc1cc(OC)c(NC(=O)c2cc(CN3CCOCC3)on2)cc1Cl` as the compound, how does the “activity change, negative = inhibition” value read?
**A.** inactive: 0.217%

**Q.** With `O=C(COc1ccc2cc(Br)ccc2c1Br)N1CCOCC1` as the compound, how does the Potency read?
**A.** inconclusive: 21.3 µM [inhibitor, partial curve, poor fit]

**Q.** For `CNC(=O)c1cccnc1Nc1cccc(C(F)(F)F)c1`, which Potency is on record?
**A.** inconclusive: 23.9 µM [inhibitor, partial curve, poor fit]

**Q.** For `O=C1NCC(CN(c2ccccc2)c2ccccc2)O1` (centres undefined), which Potency is on record?
**A.** inconclusive: 0.757 µM [inhibitor, partial curve, poor fit]

**Q.** For `O=C(CCS(=O)(=O)c1ccccc1)N1CCOCC1`, which Potency is on record?
**A.** inconclusive: 37.9 µM [inhibitor, partial curve, poor fit]

**Q.** How did the Potency turn out when `COc1cccc(-c2cc(N)nn2C(=O)Nc2ccc(Cl)cc2)c1` was run?
**A.** inconclusive: 23.9 µM [inhibitor, partial curve, poor fit]

**Q.** How did the “activity change, negative = inhibition” value turn out when `CCCCNC(=O)c1cc(Sc2ccc(OCC)cc2)nc2ccccc12` was run?
**A.** inactive: 1.1%

**Q.** Which Potency does the source give for `COc1ccccc1N1CCN(c2csc3ccc(Cl)cc3c2=O)CC1` here?
**A.** inconclusive: 26.9 µM [inhibitor, single point]

**Q.** How did the Potency turn out when `Oc1ccc(Nc2ccnc3cc(Cl)ccc23)cc1` was run?
**A.** inconclusive: 13.5 µM [inhibitor, partial curve, poor fit]

**Q.** How did the Potency turn out when `CCC(=O)Nc1nc2nc(-c3ccccc3)cc(=O)n2[nH]1` was run?
**A.** inconclusive: 19 µM [inhibitor, partial curve, poor fit]

**Q.** Which Potency does the source give for `COc1cccc(C2=NOC(C(=O)N3CCOCC3)C2)c1` (centres undefined) here?
**A.** active: 19 µM

**Q.** With `O=C(N/N=C/c1cccc(O)c1)N/N=C/c1cccc(O)c1` as the compound, how does the Potency read?
**A.** active: 5.36 µM

**Q.** How did the Potency turn out when `COc1ccc(Nc2cc(C(=O)NC3CCCC3)c3ccccc3n2)c(OC)c1` was run?
**A.** inconclusive: 9.53 µM [inhibitor, partial curve]

**Q.** How did the “activity change, negative = inhibition” value turn out when `COc1ccc(NC(=O)c2nnn(Cc3nc(-c4cc(Br)ccc4OC)oc3C)c2C)cc1` was run?
**A.** inactive: 3.95%

**Q.** For `Cc1ccc(COc2ccc(CNCCCN3CCCCCC3=O)cc2)cc1`, which Potency is on record?
**A.** inconclusive: 16.9 µM [inhibitor, partial curve]

**Q.** `COc1cccc(/C=C/C(=O)Nc2ccc(C(=O)Nc3cccc(S(N)(=O)=O)c3)cc2)c1OC` was tested. Which Potency did it give?
**A.** inconclusive: 26.9 µM [inhibitor, single point]

**Q.** How did the Potency turn out when `CSC1=N/C(=C\c2ccc(C)cc2)C(=O)S1` was run?
**A.** inconclusive: 21.3 µM [inhibitor, partial curve, poor fit]

**Q.** `COc1ccc(NC(=O)C2CCN(S(=O)(=O)c3ccc4c(c3)CCCC(=O)N4)CC2)cc1Cl` was tested. Which “activity change, negative = inhibition” value did it give?
**A.** inactive: 4.93%

**Q.** For `CC(C)OC(=O)c1ccc(N2CCN(c3ccccc3F)CC2)nc1`, which Potency is on record?
**A.** inconclusive: 26.9 µM [inhibitor, single point]

**Q.** For `Cc1cc(C)c2c(c1)C(=O)/C(=C/c1ccc(C(=O)O)cc1)CC2`, which Potency is on record?
**A.** active: 19 µM

**Q.** For `O=C(NNc1nc2ccccc2s1)c1ccc(F)cc1`, which Potency is on record?
**A.** inconclusive: 19 µM [inhibitor, partial curve]

**Q.** With `O=C(c1ccc2c(c1)OCO2)N1CCc2ccccc21` as the compound, how does the Potency read?
**A.** inconclusive: 37.9 µM [inhibitor, partial curve, poor fit]

**Q.** For `COC(=O)c1ccc(NC(=O)CC2C(=O)N(c3ccc(Cl)cc3)C(=O)N2Cc2ccco2)cc1` (centres undefined), which Potency is on record?
**A.** inconclusive: 26.9 µM [inhibitor, partial curve]

**Q.** How did the “activity change, negative = inhibition” value turn out when `O=C1CCCc2c1[nH]c1ccc(CN3CCCCC3)cc21` was run?
**A.** inactive: -1.08%

**Q.** For `NC(=S)NNC(=O)COc1ccccc1O`, which “activity change, negative = inhibition” value is on record?
**A.** inactive: 0.0907%

**Q.** How did the Potency turn out when `CCn1c2ccccc2c2cc(/C=N/n3c(-c4cc(C)[nH]n4)n[nH]c3=S)ccc21` was run?
**A.** inconclusive: 37.9 µM [inhibitor, single point]

**Q.** How did the “activity change, negative = inhibition” value turn out when `Cc1[nH]c2ccccc2c1C1N2CC3(C)CN1CC(C)(C2)C3=O` (centres undefined) was run?
**A.** inactive: -0.433%

**Q.** Which Potency does the source give for `O=C(Nc1ccccc1)Nc1ccc2ccccc2c1` here?
**A.** inconclusive: 1.35 µM [inhibitor, full curve]

**Q.** For `O=C(Nc1ccc2c(c1)OCCO2)c1ccc(NC(=O)C2CCCO2)cc1` (centres undefined), which Potency is on record?
**A.** active: 12 µM

**Q.** Which Potency does the source give for `CCc1ccc2c(c1)C1(NN=C(c3ccc(C)cc3)S1)C(=O)N2` (centres undefined) here?
**A.** active: 26.9 µM

**Q.** Which Potency does the source give for `O=C(CSc1nc2ccccc2c(=O)n1-c1ccc(F)cc1)Nc1ccc(Cl)c(S(=O)(=O)N2CCOCC2)c1` here?
**A.** inconclusive: 23.9 µM [inhibitor, partial curve, poor fit]

**Q.** For `Cc1nn(C)c2c1c(C(F)(F)F)cc(=O)n2C(C)C(=O)NCc1ccc(Cl)cc1` (centres undefined), which “activity change, negative = inhibition” value is on record?
**A.** inactive: -6.42%

**Q.** For `CCOC(=O)c1ccc(NS(=O)(=O)c2cc(-c3onc(C)c3C)ccc2C)cc1`, which Potency is on record?
**A.** inconclusive: 21.3 µM [inhibitor, partial curve]

**Q.** How did the “activity change, negative = inhibition” value turn out when `Cc1cccc(CNC(=O)CSCc2cnn(-c3ccccc3)c2-n2cccc2)c1` was run?
**A.** inactive: -19.8%

**Q.** `O=C(CCC(=O)c1ccc[nH]1)c1ccc(Cl)cc1` was tested. Which Potency did it give?
**A.** active: 12 µM

**Q.** Which Potency does the source give for `COc1ccc(CC(=O)Nc2cccc(-c3nnc(-c4cccc(C)c4)o3)c2)cc1OC` here?
**A.** inconclusive: 3.79 µM [inhibitor, full curve]

**Q.** For `O=C(NC1CCCCCC1)c1c(O)c2ccccc2[nH]c1=O`, which Potency is on record?
**A.** active: 2.69 µM

**Q.** With `O=C(O)c1ccccc1NC(=S)NC(=O)c1sc2ccccc2c1Cl` as the compound, how does the Potency read?
**A.** active: 23.9 µM

**Q.** With `CCc1ccccc1NC(=O)Nc1ccc(F)cc1` as the compound, how does the Potency read?
**A.** inconclusive: 21.3 µM [inhibitor, partial curve, poor fit]

**Q.** `Cc1ccc(-c2nnc(SCc3ccccc3F)o2)cc1` was tested. Which Potency did it give?
**A.** inconclusive: 1.69 µM [inhibitor, full curve, poor fit]

**Q.** `O=C(O)c1ccc(-n2c(/C=C\c3ccc(O)cc3)nc3ccccc3c2=O)cc1` was tested. Which Potency did it give?
**A.** inconclusive: 26.9 µM [inhibitor, partial curve, poor fit]

**Q.** How did the Potency turn out when `Cn1cnnc1SCC(=O)Nc1ccc(OCc2ccccc2)cc1` was run?
**A.** active: 15.1 µM

**Q.** Which Potency does the source give for `CCC(=O)N1CCN(c2ccc(NC(=O)c3ccco3)cc2)CC1` here?
**A.** inconclusive: 23.9 µM [inhibitor, partial curve, poor fit]

**Q.** How did the Potency turn out when `C/C(Cc1ccccc1)=N\NC(=O)CNC(=O)c1cccc(Cl)c1` was run?
**A.** inconclusive: 26.9 µM [inhibitor, partial curve, poor fit]

**Q.** `O=C(CCCCCNC(=O)N1CCn2c1nc1ccccc12)NCc1ccccc1` was tested. Which Potency did it give?
**A.** inconclusive: 23.9 µM [inhibitor, single point]

**Q.** With `COc1ccc(OC)c(S(=O)(=O)NCc2cccn2Cc2cccc(C)c2)c1` as the compound, how does the “activity change, negative = inhibition” value read?
**A.** inactive: -0.973%

**Q.** `CC1=C(C(=O)Nc2cccnc2)C(c2ccc(Cl)cc2)n2nc(-c3ccccc3)nc2N1` (centres undefined) was tested. Which “activity change, negative = inhibition” value did it give?
**A.** inactive: -2.51%

**Q.** `COc1ccc(C(=O)Nc2cccc(OCc3cc(=O)n4c5c(sc4n3)CCCC5)c2)cc1` was tested. Which Potency did it give?
**A.** inconclusive: 16.9 µM [inhibitor, partial curve, poor fit]

**Q.** How did the Potency turn out when `CCc1ccc(/C=C2\SC(=S)N(CCC(=O)Nc3cc(C)on3)C2=O)cc1` was run?
**A.** active: 16.9 µM

**Q.** How did the Potency turn out when `COc1ccc(NC(=O)c2cccn2-c2nnc(N3CCCCC3)s2)cc1Cl` was run?
**A.** inconclusive: 23.9 µM [inhibitor, partial curve]

**Q.** Which Potency does the source give for `Cc1ccc(/C=N/NC(=O)Cc2cccn2C)s1` here?
**A.** inconclusive: 30.1 µM [inhibitor, partial curve, poor fit]

**Q.** Which Potency does the source give for `COc1cc(/C=N/NC(=O)C23CC4CC(CC(C4)C2)C3)cc(Br)c1O` here?
**A.** active: 13.5 µM

**Q.** How did the Potency turn out when `COc1cccc(C(=O)Nc2cccc3ccccc23)c1OC` was run?
**A.** inconclusive: 26.9 µM [inhibitor, partial curve]

**Q.** For `N#C/C(=C\C1=C(N2CCOCC2)C(=C\c2ccc(Cl)cc2)/CC1)C(=O)Nc1ccccc1F`, which Potency is on record?
**A.** inconclusive: 21.3 µM [inhibitor, partial curve, poor fit]

**Q.** With `CC(NC(=O)COC(=O)c1ccc(OCC2CCCO2)cc1)c1ccccc1Cl` (centres undefined) as the compound, how does the “activity change, negative = inhibition” value read?
**A.** inactive: -3.19%

**Q.** `COc1cc(C(=O)NNC(=S)NC(=O)/C=C/c2ccccc2)cc(OC)c1OC` was tested. Which Potency did it give?
**A.** inconclusive: 19 µM [inhibitor, single point]

**Q.** Which Potency does the source give for `CCCC(=O)c1cc2ccccc2oc1=O` here?
**A.** inconclusive: 19 µM [inhibitor, partial curve, poor fit]

**Q.** `Cc1ccc(NC(=O)Nc2cccc(C)n2)c(C)c1` was tested. Which Potency did it give?
**A.** inconclusive: 2.69 µM [inhibitor, full curve]

**Q.** With `COC(=O)c1cc(C(=O)c2ccc(C(C)(C)C)cc2)c[nH]1` as the compound, how does the Potency read?
**A.** active: 19 µM

**Q.** For `COc1ccccc1Nc1nc(-c2sc(NC(=O)c3cccc(Cl)c3)nc2C)cs1`, which Potency is on record?
**A.** inconclusive: 10.7 µM [inhibitor, partial curve]

**Q.** How did the Potency turn out when `Cc1sc(NC(=O)Cc2ccc3c(c2)OCO3)nc1-c1ccc2c(c1)CCN2C(=O)c1ccccc1F` was run?
**A.** inconclusive: 23.9 µM [inhibitor, partial curve, poor fit]

**Q.** For `CCn1c(=O)c(=O)[nH]c2c(=O)oc3ccc(S(=O)(=O)Nc4ccc(OC)cc4)cc3c21`, which “activity change, negative = inhibition” value is on record?
**A.** inactive: 1.02%

**Q.** How did the Potency turn out when `Cc1nn2c(-c3ccco3)ccnc2c1-c1ccc(F)cc1` was run?
**A.** inconclusive: 1.69 µM [inhibitor, full curve]
